# From PubChem BioAssay AID1345083 (National Center for Advancing Translational Sciences (NCATS), 2018)
# The campaign covered roughly 94,000 compounds. About 6,200 (6.6%) were called active. Inconclusive results, whose numbers are uncertain, are shown with a selection of clear calls. Calls follow the shape of the dose curve; as a rule, active = well fitted inhibition curve with a large enough effect; inconclusive = small, poorly fitted or top-dose-only effect; inactive = flat fitted curve, though single readings scatter. Where the call is inconclusive, the potency comes from a doubtful curve fit.
# Assay: Cytotoxic Profiling in HEK 293 Cell Line of Diverse Libraries Using Quantitative High-Throughput Screening; also: nearly all actives have a fitted effect of over 60% in size
# Settings: HEK 293 viability, ATP luminescence (CellTiter-Glo), 48-72 h; series mostly up to 115 µM
# In short: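 CellTiter-Glo luminescence (cellular ATP) was read after 48 or 72 hr of compound exposure at 37 degree Celsius. Cells were HEK 293 plated at 250 cells/well.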
# Potency is read from the fitted curve at half-maximal effect; tags tell the direction and shape of the fitted curve.
row,SMILES,Potency
1,CO[C@@H]1COCC[C@H]1NC1CCN(c2ncc3ccc(F)cc3n2)CC1,inactive
2,COC1CCN(CC2CCCCCN2C(=O)c2ccc(F)cc2)CC1 (configuration not stated),inactive
3,Cc1nc(-c2ccc(OC3CCN(C(=O)c4nn(C)c5ccccc45)C3)cc2)no1 (configuration not stated),active: 44.7 µM
4,CS(=O)(=O)N1CCC(C2CCNC2)CC1 (configuration not stated),inactive
5,O=C1NCc2ccccc2CC12CCCN2CC1=CCCCC1 (configuration not stated),"inconclusive: 89.1 µM [inhibitor, partial curve]"
6,CC(C)NC(=O)N1CCCCCC1CN1CCCC1 (configuration not stated),inactive
7,COC[C@H]1CCCN1C(=O)C[C@@H]1O[C@H](CNC(=O)NC(C)C)[C@@H](O)[C@H]1O,inactive
8,COc1ccc(OCC(O)CN2CCC(=O)N(CC(C)(C)C)Cc3cc4c(cc32)OCO4)cc1 (configuration not stated),active: 50.1 µM
9,O=C(NC1CCCCC1)[C@@H]1C[C@@H](O)CN1C1CCN(C(=O)c2n[nH]c3ccccc23)CC1,inactive
10,O=C(Nc1ccc([C@H]2OCC(=O)N(Cc3ccncc3)[C@@H]2CO)cc1)c1ccc(C(F)(F)F)cc1,active: 20 µM
11,COc1ccc(OCc2nc(C3CN(C(=O)C4(c5ccccc5)CC4)C3)no2)cc1,"inconclusive: 79.4 µM [inhibitor, partial curve]"
12,O=C(NCc1cccc(Cl)c1)C1CCc2nnc(C3CC3)n21 (configuration not stated),inactive
13,CNC(=O)c1cc(C)nc2onc(C3CCN(C(=O)c4ccc(Cl)cc4)CC3)c12,inactive
14,CC(C)(C)c1ccnc(N[C@H]2CO[C@H]3[C@@H]2OC[C@@H]3NC(=O)c2ccco2)n1,"inconclusive: 100 µM [inhibitor, partial curve, poor fit]"
15,COc1cccc(C(=O)N2CCC(Oc3ccccc3-c3nc(C4CCOCC4)no3)C2)c1 (configuration not stated),"inconclusive: 35.5 µM [inhibitor, partial curve, poor fit]"
16,O=C1CC[C@]2(C(=O)NCc3ccccn3)CCCC[C@H]2N1CCc1ccccc1,inactive
17,CNC(=O)C1CCCN(c2nccc(Nc3ccccc3OC)n2)C1 (configuration not stated),"inconclusive: 112 µM [inhibitor, partial curve, poor fit]"
18,CCOC(=O)[C@@H]1CN(C(=O)OCC(C)(C)C)[C@H]2c3ccc(OC)cc3O[C@@H]12,"inconclusive: 89.1 µM [inhibitor, partial curve, poor fit]"
19,Cc1ccc(CN2C(=O)[C@@H]3C[C@@H](O)CN3C3(CN(C4CCOCC4)C3)C2=O)o1,inactive
20,COc1ccc(C(=O)N2CCC[C@H]2c2nc(-c3ccc(OC)c(OC)c3)no2)c(OC)c1,"inconclusive: 89.1 µM [inhibitor, single point]"
21,CCn1nccc1C(=O)N1CCC2(CC1)c1[nH]c3ccccc3c1CCN2C,"inconclusive: 79.4 µM [inhibitor, partial curve, poor fit]"

row,SMILES,Potency
1,O=C(NC1CCCN(c2cc(-c3ccccc3)[nH]n2)C1)c1c[nH]c2ccccc12 (configuration not stated),"inconclusive: 56.2 µM [inhibitor, partial curve, poor fit]"
2,Cc1nc(N2CCC(NC(=O)COc3ccccc3)CC2)cc(C(F)(F)F)n1,"inconclusive: 79.4 µM [inhibitor, partial curve, poor fit]"
3,COc1ccc(NC(=O)c2ccc3nc(-c4ccccn4)oc3c2)cc1,active: 25.1 µM
4,CCNC(=O)N(C1CC1)C1CCOC2(CCN(C(=O)Cc3ccccc3F)CC2)C1 (configuration not stated),inactive
5,Cc1ncoc1C(=O)N1CC(Oc2ccc(-c3nc(-c4ccccc4)no3)cc2)C1,"inconclusive: 44.7 µM [inhibitor, partial curve, poor fit]"
6,CCOc1cccc(CN(C)Cc2cn[nH]c2-c2ccc(F)cc2)c1O,"inconclusive: 89.1 µM [inhibitor, single point]"
7,Cc1ccc(OCc2nc(C3CCCCN3C(=O)c3ccn[nH]3)no2)cc1 (configuration not stated),"inconclusive: 89.1 µM [inhibitor, single point]"
8,O=[S+]([O-])(c1ccccc1)N1CC2(COCCN(Cc3ccccc3)C2)C1,"inconclusive: 100 µM [inhibitor, partial curve, poor fit]"
9,O=C(c1nccc2ccccc12)N1CCc2nc3cc[nH]n3c(=O)c2C1,inactive
10,CCc1nncn1C1CCN(S(=O)(=O)c2ccc(Cl)cc2C)CC1,inactive
11,Cn1ncc2c(C(=O)NCc3cccc(C(F)(F)F)c3)cc(-c3ccsc3)nc21,active: 28.2 µM
12,COc1ncc(-c2nc(-c3c(C)noc3C)cc3c2cc(C)n3CCN(C)C)cn1,"inconclusive: 89.1 µM [inhibitor, partial curve, poor fit]"
13,CNc1nccc(N2CCC(CC(=O)NC3CCN(Cc4ccccc4)CC3)CC2)n1,"inconclusive: 39.8 µM [inhibitor, partial curve, poor fit]"
14,O=C(CNC(=O)c1ccc(-c2cccc(C(F)(F)F)c2)cc1)NCc1ccc(F)cc1,"inconclusive: 8.91 µM [inhibitor, full curve, poor fit]"
15,COC[C@@H]1CN(C(=O)c2ccc(F)cc2F)C[C@H]1c1ccncc1,"inconclusive: 11.2 µM [inhibitor, partial curve, poor fit]"
16,CNC(=O)c1cc(C2CC2)nc2c1c(C1CCN([S+](=O)([O-])c3ccc(NC(C)=O)cc3)CC1)nn2C,"inconclusive: 50.1 µM [inhibitor, partial curve, poor fit]"
17,O=C(NCc1ccc(F)cc1)c1cc(Br)cn2ccnc12,"inconclusive: 79.4 µM [inhibitor, partial curve, poor fit]"
18,COc1ccc(-c2noc([C@@H]3CCCN3C(=O)c3cc(F)cc(F)c3)n2)cc1OC,"inconclusive: 70.8 µM [inhibitor, partial curve, poor fit]"
19,O=C(c1cccnc1)N1CCCCCC1c1nnc(-c2ccccc2)o1 (configuration not stated),inactive
20,O=C(Nc1ccc([N+](=O)[O-])cc1)NC1CCCN(CCn2nc3n(c2=O)CCCC3)C1 (configuration not stated),"inconclusive: 50.1 µM [inhibitor, partial curve, poor fit]"
21,CCN1c2cc(C(=O)NCc3ccc4c(c3)OCO4)ccc2C(=O)N2CCCCCC21 (configuration not stated),"inconclusive: 50.1 µM [inhibitor, partial curve, poor fit]"
